Some of the results follow.
B1: PhoQ; a variant is named by its letters at X, in order, P23837 (parent)
chain: MKKLLRLFFPLSLRVRFLLATAAVVLVLSLAYGMVALIGYSVSFDKTTFRLLRGESNLFYTLAKWENNKLHVELPENIDKQSPTMTLIYDENGQLLWAQRDVPWLMKMIQPDWLKSNGFHEIEADVNDTSLLLSGDHSIQQQLQEVREDDDDAEMTHSVAVNVYPATSRMPKLTIVVVDTIPVELKSSYMVWSWFIYVLSANLLLVIPLLWVAAWWSLRPIEALAKEVRELEEHNRELLNPATTRELTSLVRNLNRLLKSERERYDKYRTTLTDLTHSLKTPLXXLQXXLRSLRSEKMSVSDAEPVMLEQISRISQQIGYYLHRASMRGGTLLSRELHPVAPLLDNLTSALNKVYQRKGVNISLDISPEISFVGEQNDFVEVMGNVLDNACKYCLEFVEISARQTDEHLYIVVEDDGPGIPLSKREVIFDRGQRVDTLRPGQGVGLAVAREITEQYEGKIVAGESMLGGARMEVIFGRQHSAPKDE

Variants of: B1
Experiment: enrichment ratio after two sorts for PhoP signalling (ratio (wild type AVST 3.29)); higher = more functional
Conditions: with PhoP (E. coli)

Variant | enrichment ratio
DFFE | ≤ 0.25
SIMY | 3.34
RRWW | ≤ 0.25
QVFA | ≤ 0.25
LIPF | ≤ 0.25
RHTI | ≤ 0.25
FMQE | ≤ 0.25
CISC | ≤ 0.25
KPAH | ≤ 0.25
PKVN | ≤ 0.25
LERF | ≤ 0.25
NWCA | ≤ 0.25
KNGG | ≤ 0.25
AEPS | ≤ 0.25
GLWK | ≤ 0.25
APFM | ≤ 0.25
CNFH | ≤ 0.25
RFLG | ≤ 0.25
MEYN | 2.87
MATL | 7.59
DWWC | ≤ 0.25
EGWA | ≤ 0.25
YFLP | ≤ 0.25
RWGQ | ≤ 0.25

Variant | enrichment ratio
DCPY | ≤ 0.25
MAAK | ≤ 0.25
QHQD | ≤ 0.25
GVHR | ≤ 0.25
AVRH | ≤ 0.25
PYNQ | ≤ 0.25
IFHK | ≤ 0.25
VWCW | ≤ 0.25
MSAI | 9.81
SMMG | 9.58
QKIP | ≤ 0.25
RDRE | ≤ 0.25
MNQL | ≤ 0.25
WPYD | ≤ 0.25
MSKL | ≤ 0.25
LNPW | ≤ 0.25
YVLK | ≤ 0.25
WDAG | ≤ 0.25
RCKP | ≤ 0.25
ELLT | ≤ 0.25
AWMY | ≤ 0.25
VYAY | ≤ 0.25
PLRQ | 1.07
DQRF | ≤ 0.25

Variant | enrichment ratio
IKLP | ≤ 0.25
NEKF | ≤ 0.25
QQAE | ≤ 0.25
DCLV | ≤ 0.25
HHCE | ≤ 0.25
IELA | ≤ 0.25
YNFF | ≤ 0.25
RKCR | ≤ 0.25
HWFK | ≤ 0.25
WLAG | ≤ 0.25
MTIE | ≤ 0.25
EPSG | ≤ 0.25
WYGD | ≤ 0.25
IGCH | 0.982
WVAP | ≤ 0.25
RMLS | ≤ 0.25
YWCN | ≤ 0.25
FHVH | ≤ 0.25
KDCL | ≤ 0.25
KNEK | ≤ 0.25
LWWR | ≤ 0.25
GLKT | ≤ 0.25
YTCK | ≤ 0.25
IGFQ | ≤ 0.25

Variant | enrichment ratio
QSFP | ≤ 0.25
DRAC | ≤ 0.25
LCPS | ≤ 0.25
MRYD | ≤ 0.25
FEST | ≤ 0.25
ATCP | ≤ 0.25
NFLM | ≤ 0.25
WFPD | ≤ 0.25
HRKF | ≤ 0.25
QPKG | ≤ 0.25
AIHC | 10.3
LKVC | ≤ 0.25
ECKH | ≤ 0.25
RHWK | ≤ 0.25
FKDS | ≤ 0.25
KLCK | ≤ 0.25
GEMW | ≤ 0.25
PQSS | ≤ 0.25
MRKK | ≤ 0.25
VHKG | ≤ 0.25
YYKF | ≤ 0.25
PHEW | ≤ 0.25
SNPK | ≤ 0.25
HADR | ≤ 0.25

Variant | enrichment ratio
RCCG | ≤ 0.25
TLMK | ≤ 0.25
FVHS | ≤ 0.25
GVGI | ≤ 0.25
ATKD | ≤ 0.25
STNE | ≤ 0.25
PNLF | ≤ 0.25
IAAQ | ≤ 0.25
YMTP | ≤ 0.25
DDIK | ≤ 0.25
ERSI | ≤ 0.25
EFRI | ≤ 0.25
QLHP | ≤ 0.25
RHYT | ≤ 0.25
PQPN | ≤ 0.25
FQLR | ≤ 0.25
RGQY | ≤ 0.25
MWGI | ≤ 0.25
AAVI | 2.14
PDFD | ≤ 0.25
IMND | ≤ 0.25
YVTM | ≤ 0.25
QRLV | ≤ 0.25
PMMV | ≤ 0.25

Variant | enrichment ratio
IPNK | ≤ 0.25
YFSS | ≤ 0.25
HIAM | ≤ 0.25
KDCA | ≤ 0.25
ARPC | ≤ 0.25
IFER | ≤ 0.25
ICQW | ≤ 0.25
MKAW | ≤ 0.25
HKFT | ≤ 0.25
GYKM | ≤ 0.25
VNFN | ≤ 0.25
TILA | 4.43
AAHW | ≤ 0.25
SPEQ | ≤ 0.25
YMQR | ≤ 0.25
QAMP | ≤ 0.25
KDRI | ≤ 0.25
RVSP | ≤ 0.25
IIFQ | ≤ 0.25
NWQI | ≤ 0.25
PWHS | ≤ 0.25
KIFL | ≤ 0.25
TIFQ | ≤ 0.25
MTPN | ≤ 0.25

Variant | enrichment ratio
PDTS | ≤ 0.25
YPAP | ≤ 0.25
LLVL | ≤ 0.25
MCFF | 6.17
QKYS | ≤ 0.25
LCTV | ≤ 0.25
LPCP | ≤ 0.25
DPPM | ≤ 0.25
RYLG | ≤ 0.25
KQWC | ≤ 0.25
ILSK | ≤ 0.25
LWPG | ≤ 0.25
RMFR | ≤ 0.25
PEFT | ≤ 0.25
RHTA | ≤ 0.25
YQSH | ≤ 0.25
RSYM | ≤ 0.25
FPRH | ≤ 0.25
LDRC | ≤ 0.25
AIGV | ≤ 0.25
EDVE | ≤ 0.25
QECL | ≤ 0.25
ETCN | ≤ 0.25
IHFY | ≤ 0.25

Variant | enrichment ratio
DTGR | ≤ 0.25
IQSC | ≤ 0.25
QDSE | ≤ 0.25
DAFN | ≤ 0.25
ESMK | ≤ 0.25
NGMM | ≤ 0.25
HPKR | 3.21
NSCT | ≤ 0.25
FTIH | ≤ 0.25
HKLE | ≤ 0.25
RPTC | ≤ 0.25
VCLQ | 6.54
MVWD | ≤ 0.25
QYAF | ≤ 0.25
RMDD | ≤ 0.25
HVPT | ≤ 0.25
CTLP | ≤ 0.25
PWEY | ≤ 0.25
VFGF | ≤ 0.25
NECV | ≤ 0.25
TVMT | 12.2
LPMM | ≤ 0.25
IGCQ | ≤ 0.25
SFMH | ≤ 0.25

Variant | enrichment ratio
NNNH | ≤ 0.25
LHFE | ≤ 0.25
KMGI | ≤ 0.25
IAMT | ≤ 0.25
RYKM | ≤ 0.25
QECS | 10.1
IEVR | ≤ 0.25
SRCD | 4.09
TCHQ | 23.4
AYFT | ≤ 0.25
RVCV | ≤ 0.25
ATPF | ≤ 0.25
HTQM | ≤ 0.25
YKPS | ≤ 0.25
NTHH | ≤ 0.25
HQNP | ≤ 0.25
RWFI | ≤ 0.25
YMKG | ≤ 0.25
ALEI | ≤ 0.25
KPDP | ≤ 0.25
RGNW | ≤ 0.25
ERNR | ≤ 0.25
PFAF | ≤ 0.25
AGNQ | ≤ 0.25

Variant | enrichment ratio
SRHA | ≤ 0.25
WHEP | ≤ 0.25
VWMS | ≤ 0.25
RKNP | ≤ 0.25
DVKL | ≤ 0.25
AKEN | ≤ 0.25
RKQR | ≤ 0.25
QLDH | ≤ 0.25
PECC | ≤ 0.25
LMYV | ≤ 0.25
LYED | ≤ 0.25
FFMA | ≤ 0.25
PNDF | ≤ 0.25
AVYR | ≤ 0.25
MPPC | ≤ 0.25
YKWW | ≤ 0.25
YSGE | ≤ 0.25
CSFT | ≤ 0.25
QGYS | 8.3
RLMD | ≤ 0.25
GIVI | 6.54
LMTS | 0.708
MCRR | ≤ 0.25
FYLK | ≤ 0.25

Variant | enrichment ratio
NQRW | ≤ 0.25
EATG | ≤ 0.25
THAW | ≤ 0.25
VIAR | ≤ 0.25
GQLD | ≤ 0.25
TDGR | ≤ 0.25
ELLK | ≤ 0.25
LTQV | ≤ 0.25
SPFK | ≤ 0.25
WFDV | ≤ 0.25
YHEW | ≤ 0.25
RCWF | ≤ 0.25
DNEG | ≤ 0.25
WDKS | ≤ 0.25
YSGC | ≤ 0.25
NYSD | ≤ 0.25
EPIC | ≤ 0.25
EHER | ≤ 0.25
YQEY | ≤ 0.25
QANG | ≤ 0.25
TKLH | 11.9
IPFQ | ≤ 0.25
VWFA | ≤ 0.25
LPRL | ≤ 0.25

Variant | enrichment ratio
MIHA | ≤ 0.25
FSIY | ≤ 0.25
EFNC | ≤ 0.25
SSVN | 6.68
PHGQ | ≤ 0.25
WFCP | ≤ 0.25
WMTN | ≤ 0.25
DCID | ≤ 0.25
GGVG | ≤ 0.25
KEVS | ≤ 0.25
FAPE | ≤ 0.25
MSMF | 3.78
RSLL | ≤ 0.25
MMYG | ≤ 0.25
FWDV | ≤ 0.25
THWG | 0.774
LGFP | ≤ 0.25
LPIE | ≤ 0.25
PSDW | ≤ 0.25
TEMD | 1.58
LDCP | ≤ 0.25
VEMY | ≤ 0.25
LLSL | ≤ 0.25
PIPH | ≤ 0.25

Variant | enrichment ratio
MFTI | ≤ 0.25
AEFV | 1.65
STPF | ≤ 0.25
YQSR | ≤ 0.25
SNAM | 13.5
KHFQ | ≤ 0.25
EIKK | ≤ 0.25
YTWI | ≤ 0.25
PGAN | ≤ 0.25
GAPC | ≤ 0.25
YYQW | ≤ 0.25
SIWS | ≤ 0.25
RWYY | ≤ 0.25
IDFL | ≤ 0.25
YLPD | ≤ 0.25
YRMC | ≤ 0.25
TQSP | ≤ 0.25
YQAF | ≤ 0.25
